These results are taken from PubChem BioAssay AID463173 (ICCB-Longwood Screening Facility, Harvard Medical School, 2010).

The structures appear in SMILES notation. Among all 52,000 compounds or so, about 1,700 (3.3%) were called active. Cut-off read from the data, not from the text of the source: active = survival mostly below about 52% (no sharp cut-off); inactive = mostly above about 56%. The list shows a part of the results.

The test system of this experiment is Wild type. Nature of the experiment: S. aureus survival, RN4220 and DeltatarO strains – OD600, teichoic acid synthesis inhibitors, primary screen (AID 463173). Conditions: S. aureus RN4220 wild type/DeltatarO growth, OD600, 18 h, active compounds read low, screened at 18.75 µg/mL (by protocol).
`CCOC(=O)C(Cc1ccccc1)NC(=O)CCc1c(C)nc2nc(C)nn2c1C` (stereo unspecified): the survival is inactive: 72%.
For `COc1ccc(NC(=O)c2sc3nc4c(cc3c2N)CCCCCC4)cc1`, the survival is inactive: 132%.
In the case of `COc1cccc(-n2c(-c3ccccc3F)nc3c(cnn3-c3ccc(C)cc3)c2=O)c1` it was inactive: 78%; in that of `Cc1ccccc1NC(=O)CSc1nc(-c2ccccc2)cn1-c1ccccc1F`, inactive: 85%; in that of `O=C(NC1CCCC1)c1ccc2c(=O)n(Cc3ccccc3)c(SCc3cccc([N+](=O)[O-])c3)nc2c1`, inactive: 124%.
With `Cc1ccccc1OCc1nc2c3cnn(-c4ccccc4F)c3ncn2n1`, the survival is inactive: 104%.
Turning to `COCCNC(=O)CSc1nc2cc3c(cc2c(=O)n1CCCC(=O)NCc1ccc2c(c1)OCO2)OCO3`, the survival was inactive: 71%.
For the compound `COc1ccc(CNC(=O)CSc2ncc3c(n2)-c2cc(Cl)ccc2N(Cc2ccccc2)S3(=O)=O)cc1`, the survival is inactive: 74%.
As for `CCOc1ccccc1C(=O)Nc1nncs1`, the survival was inactive: 100%.
`CCc1ccc(OCC(=O)Nc2cc(-c3ccc(C)cc3)no2)cc1`: the survival is inactive: 90%.
In the case of `CCOC(=O)Cn1c(=O)cc(C(F)(F)C(F)(F)F)c2c(C)nn(CC)c21`, the survival is inactive: 90%.
For the compound `Cc1ccc(Cl)cc1N1CCN(C(=O)Cn2c(-c3cccs3)cc3cc(F)ccc32)CC1`, the survival was inactive: 68%.
On to `CCOc1ccc(CNC(=O)C2CCN(C(=O)N3CC(CC)Oc4ccccc43)CC2)cc1` (stereo unspecified), for which the survival is inactive: 119%.
With `Cc1c(Cl)cccc1NC(=O)N1CCOc2ccccc21`, the survival was inactive: 99%.
For `COC(=O)c1sccc1S(=O)(=O)N1CCN(c2ccc(C)cc2C)CC1`, the survival was inactive: 59%.
In the case of `CCCNC(=O)c1ccccc1NC(=O)c1nsc2ccccc12`, the survival was inactive: 98%.
As for `COc1cccc(NC(=O)CSc2ncc3c(n2)-c2ccc(Cl)cc2N(C)S3(=O)=O)c1`, the figure is active: 10%; as for `CC(C)(C)c1ccc(C(=O)NC2(C(F)(F)F)NC(=O)N(CCc3ccccc3)C2=O)cc1` (stereo unspecified), inactive: 43%.
For `S=c1[nH]nc(Cc2ccccc2)n1Cc1ccccc1`, the survival is inactive: 108%.
For the compound `Cc1ccc(OCC(=O)Nc2ccc3nc(SCC(=O)Nc4ccc(C)cc4C)sc3c2)cc1`, the survival is inactive: 77%.
As for `Cc1ccc(NC(=O)NCCOCCn2c(=O)oc3ccccc32)cc1C`, the survival was inactive: 80%.
As for `CCOc1ccc(CNC(=O)c2ccccc2NC(=O)c2nsc3ccccc23)cc1`, the figure is active: -6%; as for `CCOc1ccccc1NC(=O)C(=O)NCCc1sc2nc(-c3ccc(OC)cc3)nn2c1C`, inactive: 84%.
Regarding `Cc1ccc(Cn2c(=O)n(-c3ccc(C)cc3)c(=O)c3c2c2cc(C)ccc2n3C)cc1`, the survival is inactive: 64%.
Regarding `O=c1c(Cl)c(NC2CC2)cnn1-c1ccccc1`, the survival is inactive: 113%.
As for `COC(=O)c1ccc(NC(=O)CN2CCN(S(=O)(=O)c3ccc(Br)cc3)CC2)cc1`, the survival was inactive: 85%.
In the case of `COc1ccc(S(=O)(=O)N(CC(=O)Nc2cc(C)ccc2OC)Cc2ccccc2)cc1` it was inactive: 69%; in that of `CCOc1ccccc1NS(=O)(=O)c1ccc2[nH]c3c(c2c1)CCCCC3`, inactive: 66%; in that of `CCOc1ccc(CCNC(=O)c2cc3c(=O)n(C)c4ccccc4c3n2C)cc1OCC`, inactive: 122%.
Turning to `Cc1c(-c2ccc(Cl)cc2)c(=O)oc2c(CN3CCN(CCO)CC3)c(O)ccc12`, the survival is inactive: 71%.
On to `O=C(CSc1cn(CC(=O)N2CCCCC2)c2ccccc12)NCc1ccc(F)cc1`, for which the survival is inactive: 92%.
`CCCN(CCC)CCCNC(=O)C1CCN(c2nc3ccc(CC)cc3s2)CC1`: the survival is inactive: 61%.
As to `Cc1ccc(NC(=O)Nc2ccc3nc(N4CCN(C)CC4)cc(C)c3c2)cc1F`, the survival is inactive: 72%.
With `N#C/C(=C\c1cccc(F)c1)c1nc(-c2cc3c(ccc4ccccc43)oc2=O)cs1`, the survival is inactive: 84%.
In the case of `CCOc1cc(C2c3c(oc4cc(C)cc(C)c4c3=O)C(=O)N2CCO)ccc1O` (stereo unspecified) it was inactive: 81%; in that of `Cc1c(Cl)cccc1NC(=O)C1CCCN(c2nnc(-n3c(C)ccc3C)s2)C1` (stereo unspecified), inactive: 77%; in that of `O=C(NCc1ccc2c(c1)OCO2)c1ccc2c(c1)N(Cc1cccc(Cl)c1)C(=O)c1ccccc1S2=O` (stereo unspecified), inactive: 78%.
As for `COc1ccc(CNC(=O)Cn2c(=O)nc(-c3ccccc3F)c3cc(Cl)ccc32)cc1`, the figure is inactive: 59%; as for `CCN(CC)C(=O)CSc1nc2cc3c(cc2c(=O)n1CCCCCC(=O)NCc1ccc(OC)cc1)OCO3`, active: -3%; as for `CCN(CCCNC(=O)c1ccc(Sc2ccc(F)cc2)c(NC(C)=O)c1)c1ccccc1`, inactive: 72%.
Take `Cc1ccc(CSC2=Nc3ccccc3C3=NC(CCC(=O)NCc4cccs4)C(=O)N23)cc1` (stereo unspecified): the survival was inactive: 128%.
In the case of `O=C(NCC(c1ccc2c(c1)OCO2)N1CCN(c2ccccc2)CC1)C(=O)Nc1cccc(F)c1` (stereo unspecified), the survival is inactive: 65%.
`CC(=O)Nc1ccc(C(=O)CSc2nnc3scc(-c4ccccc4)n23)cc1`: the survival was inactive: 131%.
In the case of `Cc1ccc(F)cc1NC(=O)Cn1c(=O)nc(-c2ccccc2F)c2cc(Cl)ccc21`, the survival was inactive: 91%.
`COc1ccc(NC(=O)C(C)Sc2nc(N)cc(=O)[nH]2)cc1` (stereo unspecified): the survival is inactive: 96%.
For the compound `Cc1ccc(-c2nc3c(C)cccn3c2Nc2ccccc2C)s1`, the survival was active: -2%.
In the case of `COc1ccc(C2=C(C)C(=O)N(Cc3ccc(C(=O)Nc4cccc(F)c4)cc3)S2(=O)=O)cc1` it was inactive: 80%; in that of `CC1CCCN(c2nc3c(S(=O)(=O)c4ccc(C(C)C)cc4)nnn3c3ccsc23)C1` (stereo unspecified), inactive: 58%.
In the case of `Cc1cc(=O)[nH]c(SCSc2nc(C)cc(=O)[nH]2)n1` it was inactive: 104%.
As for `CCC1CCCCN1CCCNC(=O)c1c(O)nc2ccccn2c1=O` (stereo unspecified), the figure is inactive: 100%; as for `COc1ccccc1C(=O)NCc1nnnn1-c1ccc(C)c(C)c1`, inactive: 79%.
As to `CC(O)c1nc2ccccc2n1Cc1ccccc1` (stereo unspecified), the survival is inactive: 100%.
With `COc1ccc(-c2csc(-c3nc(-c4ccc(Br)s4)cs3)n2)cc1F`, the survival is inactive: 78%.
As for `Cn1c(-c2ccccc2)cnc1NC(=O)c1ccc(F)cc1`, the figure is inactive: 116%; as for `CCCC1=Nc2cc(C(=O)NCCc3ccc(OCC)cc3)ccc2Sc2ccccc21`, inactive: 82%; as for `CN1CCN(C(=O)C(C(=O)N2CCN(C)CC2)C23CC4CC(CC(C4)C2)C3)CC1`, inactive: 101%.
